The supplement of paper PMC11417369
± gives the standard deviation of the averaged measurements. Some of the results follow.

system: PfAP2-LT AP2 domain (GST-tagged); assay: gcPBM binding intensity (ln(normalized median fluorescence intensity)); higher = stronger DNA binding
How it was run: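 Binding of GST-tagged P. falciparum DNA-binding domains, expressed in E. coli and used at about 25 μg on average, was carried out for 1 h in 1× PBS containing 1% milk, 0.2 mg/ml BSA, 0.5% salmon testes DNA and 0.03% Triton X-100. The target was an Agilent 4 × 180k array of primer-extended double-stranded 36-bp intergenic genomic probes plus negative controls, read with Alexa488 anti-GST antibody at 488 nm. Binding intensity is the highest Masliner-normalised natural-log median intensity across replicate spots of either probe orientation.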

| Sequence | gcPBM binding intensity (ln) |
| --- | --- |
| TATATTTATATATATACACACATAATAAAAAATATA [CACACA_site844] | 8.79 ± 0.32 |
| TTGTTTTGTAATAAAAAAAAAATAATATAATATAAT [XGTACX_negctrl_site300] | 8.27 ± 0.49 |
| TATTGAAAAAGTGGAAAAAAGTACATCATACGGGAA [CACACA_negctrl_site1091] | 8.86 ± 0.47 |
| GTAAGAAACAGACACACACACATATAAATATAAATA [CACACA_site6515] | 9.86 ± 0.49 |
| AATTTATTAATACAAAGTACTTTCTAATATGAATTT [XGTACX_site8013] | 8.62 ± 0.5 |
| GAAAAATTAAAATGTGGTACAATAAAATTTTATTCA [XGTACX_site5030] | 8.59 ± 0.61 |
| ATATTTATACTATACACACCCAATTTAAAAAAAAAT [CACACA_site1163] | 8.87 ± 0.34 |
| TTATTGCGCACAATTTGTACATATATATATATAGAA [XGTACX_site7573] | 8.84 ± 0.4 |
| AGTGTATTAAATTTTGAACACACAAAATAAAACATA [CACACA_site8483] | 8.95 ± 0.47 |
| TTTAGACTTTTCTATAGTACATATTATATATATATA [XGTACX_site6532] | 8.64 ± 0.38 |
| TTTTAATTTAAAAATTAATTTATATATATATATATA [TGCATGCA_negctrl_site447] | 8.635 ± 0.05 |
| TATACCTTAATATACACACATACATATATATATATA [CACACA_site1339] | 9.46 ± 0.014 |
| TAAATCACAAAATTATGTACTAAGAAGGAGCAACAT [XGTACX_site6742] | 8.86 ± 0.39 |
| TATATACATTTTTATGTGCACATTTTATTTTTAAAT | 9.04 ± 0.38 |
| TAACAAAGTAAAAGAACATGCAAACACGCACACAGA [TGCATGCA_site374] | 9.36 ± 0.47 |
| GGGGAAAAAGCAGGTTGTACAGTGATGTCCATATAA [XGTACX_site7606] | 8.99 ± 0.25 |
| TTTATAAAATATCTTTCACACATTACTATGTATTAT [CACACA_site5148] | 8.88 ± 0.43 |
| ATAAAAGTTTAATATTGTACGAACATGCGTTTCTAA [XGTACX_site1487] | 8.55 ± 0.4 |
| AAAAAAAAATAAAAAAGTACAGGTAAATATATATAT [XGTACX_site5812] | 8.89 ± 0.48 |
| AAAAAAAAAAAATATATATATATATATATAATATTT [GTGCAC_negctrl_site678] | 8.88 ± 0.43 |
| GAATAAATAAAAATATGTACATAAATATATATATAT [XGTACX_site8858] | 9.3 ± 0.38 |
| AAGACAAATATGTATTGTACGAACGCTTTTTAATTA [XGTACX_site1961] | 8.84 ± 0.4 |

| Sequence | gcPBM binding intensity (ln) |
| --- | --- |
| ATACTTTAAAATAATACACACATGGAAAATAAAATT [CACACA_site697] | 9.04 ± 0.35 |
| AAAAAAAAAAAAAAAACACACAATTGAATTATTAAG [CACACA_site2864] | 8.7 ± 0.61 |
| TTTTATTATTAAACATGTACCCATATTATTGTTATG [XGTACX_site5563] | 8.79 ± 0.53 |
| ATAAATAGAATAAAATGTACATGTAATACATATATA [XGTACX_site5475] | 8.89 ± 0.46 |
| TTCTTAAAAAATCAAACACACATATATATATACATA [CACACA_site2296] | 8.65 ± 0.43 |
| GTTTAGATAAAAGGGCGTACATCTATTTTTGACTAA [XGTACX_site7170] | 8.62 ± 0.36 |
| AAAACAAAAAAATTTTGTACGAAACAATACTGTAAG [XGTACX_site7992] | 8.72 ± 0.47 |
| TATATATATTGTTATTGTACACAAATATAGGAAATA [XGTACX_site7110] | 8.61 ± 0.46 |
| AAATTTGGTGAAGGATGTACTTTACCTAATACTTGT [XGTACX_site4825] | 8.71 ± 0.38 |
| AGAATTATATCATGGTGTACTTATTTGTTTATTTCT [XGTACX_site5795] | 9.05 ± 0.4 |
| AAAAAAATATATTCCTAATTTATGATTAAAAGGAAT [CACACA_negctrl_site751] | 8.37 ± 0.43 |
| ATAAATTAAACAAACACACACGTTCTTTTATTTACT [CACACA_site4556] | 9.12 ± 0.46 |
| TTTTTTTTTGGGTGTACACATGAATATATATTTTTT [CACACA_site5254] | 8.76 ± 0.38 |
| GTATGTATGTATGTATGTACTTATTTATTTATTTAT [XGTACX_site1921] | 9.35 ± 0.3 |
| TAAAAGTATTCCTTTTGTACATATAATGAAAACAAT [XGTACX_site2069] | 8.52 ± 0.43 |
| CTGTTTTTACTAAGTTGTACAAATGATGATACCCTA [XGTACX_site630] | 8.62 ± 0.45 |
| CTATATTTTTAAAAATGTACTTTATAATAAAATACT [XGTACX_site3593] | 8.35 ± 0.36 |
| ATACAATAATATAAATGTACAAATTATATCTTAATT [XGTACX_site6004] | 8.82 ± 0.44 |
| TAAATTTAAAATGACACACACTAAAATTATTTAAGT [CACACA_site4816] | 9.06 ± 0.4 |
| ACCTTTAATATATACACACACATAAAAAAAATATAT [CACACA_site1843] | 9.38 ± 0.36 |
| AAATATTCATAGTATACACACATTTATTTATAACCA [CACACA_site6502] | 8.82 ± 0.35 |
| AATGATAAAAATAAATGTACAGAATGATATTTTTTT [XGTACX_site5976] | 8.71 ± 0.47 |
